# Measurements from PubChem BioAssay (NCATS).
# The shares of active, inactive and inconclusive entries below differ from those in the screen. Calls come from the whole dose curve; as a rule, active = well fitted inhibition curve with a large enough effect; inconclusive = small, poorly fitted or top-dose-only effect; inactive = flat fitted curve, though single readings scatter. A potency beside an inconclusive call is a rough fit, not a confirmed value.
# Experiment: P-glycoprotein substrates identified in KB-8-5-11 adenocarcinoma cell line, qHTS therapeutic library screen (AID 1346987); note: nearly all actives have a fitted effect of over 65% in size
# Conditions: activity change, negative = cytotoxicity: at 44.5 µM (top of the series)
# In short: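 KB-8-5-11, a colchicine-selected P-gp-overexpressing KB-3-1 subline, was grown without colchicine for the assay. Cells were seeded at 500 cells/well, dosed in concentration-response and incubated 72 h at 37 degree C, 5% CO2. Viability was read by CellTiter-Glo luminescence.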
# Potency is the fitted concentration of half-maximal effect; tags give direction and shape of the fitted curve.
structure (smiles),measurement,value
C=C1CC[C@H]2[C@@](C)(CCC[C@@]2(C)C(=O)O)[C@@H]1CCC(C)CCO (stereo partly specified),Potency,"inconclusive: 4.53 µM [inhibitor, single point]"
